Hit rate of the full screen: of about 200,000 compounds, about 4,500 (2.2%) were called active. This list was built around the results that the source calls inconclusive (neither active nor inactive); the mix of calls is not that of the screen. The call rests on the fitted dose curve; in most records, active means well fitted inhibition curve with a large enough effect; inconclusive means small, poorly fitted or top-dose-only effect, or effect the other way; inactive means flat fitted curve, though single readings scatter. Potencies beside an inconclusive call are fits to weak or partial responses and may not hold up.
These compounds were tested against Cruzipain (Trypanosoma cruzi) (UniProt P25779) (assay: qHTS Assay for Promiscuous and Specific Inhibitors of Cruzain (without detergent)). Conditions: purified cruzain, Z-FR-AMC fluorescence, no detergent.
Sequence of UniProt P25779 (P25779 whole entry, looked up): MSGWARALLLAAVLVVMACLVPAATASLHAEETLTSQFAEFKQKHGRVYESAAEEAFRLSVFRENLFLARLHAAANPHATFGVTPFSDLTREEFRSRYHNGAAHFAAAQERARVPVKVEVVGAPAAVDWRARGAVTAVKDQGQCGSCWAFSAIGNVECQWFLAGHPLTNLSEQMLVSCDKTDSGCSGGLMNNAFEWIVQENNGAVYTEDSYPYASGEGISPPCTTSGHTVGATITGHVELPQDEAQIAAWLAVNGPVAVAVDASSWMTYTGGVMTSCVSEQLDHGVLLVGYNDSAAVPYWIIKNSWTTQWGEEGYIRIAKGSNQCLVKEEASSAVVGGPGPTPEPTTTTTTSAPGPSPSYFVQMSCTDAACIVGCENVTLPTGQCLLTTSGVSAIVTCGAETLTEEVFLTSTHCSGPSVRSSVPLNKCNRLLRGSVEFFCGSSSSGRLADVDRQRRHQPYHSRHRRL
Procedure, shortened: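 Detergent-free condition (0.00005% Triton X-100) in acetate buffer pH 5.5 with DTT. 1.5 nM enzyme and compound were pre-mixed 15 min, then 2 uM Z-FR-AMC substrate added; reaction progress from fluorescence change between first and third reads (60 s).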
Further: nearly all actives have a fitted effect of over 40% in size.
Potency means the concentration at half of the fitted maximal effect; tags describe the fitted curve by direction and shape.
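Wherever max response, negative = inhibition is given: plate controls were enzyme without inhibitor for no effect and buffer without enzyme for full effect.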

Compound	max response, negative = inhibition	Potency
CN(C=O)CP(=O)(O)CN1CCCCC1	inactive: 1.61%	–
COc1ccc(C)cc1N(C(=O)c1ccccc1)c1nc2ccccc2s1	–	inconclusive: 31.6 µM [inhibitor, single point]
Cn1nnnc1Sc1ncnc2scc(-c3ccccc3)c12	–	active: 15.8 µM
Cc1c(C(=O)Nc2ccc(Oc3ccccc3)cc2)sc2nc3n(c(=O)c12)CCC3	–	inconclusive: 31.6 µM [activator, single point]
CCOC(=O)N1CCC2(CC1)C(C#N)=C(N)Oc1c2c(C)nn1-c1cccc(Cl)c1	inactive: 18.6%	–
CCOc1ccc(CC(=O)NCc2ccc3c(c2)CCN3C(=O)c2ccccc2)cc1OCC	inactive: 9.81%	–
C=C(C)C1Cc2c(C)nn(-c3cccc4ccccc34)c2C1 (stereo not given)	inactive: -0.909%	–
CCn1nnc2cc(C(=O)Nc3cc(C)ccc3C)ccc21	inactive: -6.01%	–
Cc1ccccc1CNC(=O)CCC(=O)N1CCSc2ccccc21	inactive: 13.6%	–
CCC(C)(C)C1CCc2c(sc(N)c2C(N)=O)C1 (stereo not given)	–	inconclusive: 20 µM [inhibitor, partial curve, poor fit]
CCC(=O)N1CCN(c2nc3ccccc3s2)CC1	inactive: -2.48%	–
Cc1ccc(C)c(N2CCN(S(=O)(=O)c3ccc(C(=O)N(C)C)s3)CC2)c1	–	inconclusive: 31.6 µM [activator, single point]
Cc1nc2sc(C(c3ccc(Cl)cc3)N3CCN(C(=O)c4ccco4)CC3)c(O)n2n1 (stereo not given)	–	inconclusive: 31.6 µM [activator, single point]
Cc1ccc(NC(=S)/C(=C(\[O-])c2ccc(C)c([N+](=O)[O-])c2)[n+]2ccccc2)cc1C	–	active: 25.1 µM
COc1ccc(CCNC(=O)c2cc3c(=O)n(C)c4ccccc4c3s2)cc1OC	inactive: 6.67%	–
CCOc1ccc2nc(SCC(=O)Nc3ccc4c(c3)OCO4)sc2c1	–	inconclusive: 39.8 µM [activator, single point]
COc1ccc(CCNCc2c(C(=O)O)c(C)n(Cc3cccc(Cl)c3)c2C)c(OC)c1OC	inactive: 18.3%	–
COc1ccc(/C=N/N=C2/NC(=O)C(c3ccccc3)(c3ccccc3)S2)cc1	–	active: 3.16 µM
C/C(=N\NC(=O)c1ccc(CSc2cccc3cccnc23)cc1)C1CCCCC1	–	inconclusive: 39.8 µM [inhibitor, single point]
CCc1cc2c(cc3c(=O)n(CC(=O)N4CCN(c5cccc(C)c5C)CC4)nc(CC)n32)s1	inactive: 0.183%	–
Cc1ccc(-c2nn(-c3ccccc3)cc2NC(=O)c2ccccc2)cc1	–	inconclusive: 25.1 µM [inhibitor, single point]
CC(=O)c1cccc(NC(=O)CN2C(=O)CC(c3ccc(C)cc3C)=Nc3ccccc32)c1	inactive: 14.1%	–
O=C(O/N=C\c1ccc(N2CCOCC2)c([N+](=O)[O-])c1)c1ccccc1Cl	–	inconclusive: 31.6 µM [activator, single point]

Compound	max response, negative = inhibition	Potency
CCC1=C(OC(=O)N(CC)CC)N2C(=O)OC(=NCCOC)[C@]2(Cc2ccccc2)[C@H]2C1=CC[C@H]1C(=O)N(CC)C(=O)[C@H]12	–	inconclusive: 7.94 µM [activator, full curve]
COc1ccc(-c2nsc3c(N4CCN(C(=O)c5ccco5)CC4)ncnc23)cc1	–	inconclusive: 39.8 µM [activator, single point]
O=C(Nc1ccc(Br)cc1)c1ccc(N2C(=O)C3CC=C(Cl)CC3C2=O)cc1 (stereo not given)	–	active: 20 µM
COc1ccc(-c2noc(CC(=O)Nc3cc(OC)ccc3OC)n2)cc1	–	active: 3.98 µM
COc1ccc(C)cc1NC(=O)C(OC(=O)CNC(=O)c1cc(C)cc(C)c1)c1ccccc1 (stereo not given)	–	active: 20 µM
CC(C)NC(=O)c1ccc2c(c1)nc1n2CCCCC1	inactive: -0.417%	–
COc1ccc(C(C(=O)NC(C)(C)C)N(C(=O)CNC(=O)c2cccs2)c2ccc(C(C)C)cc2)cc1OC (stereo not given)	–	inconclusive: 31.6 µM [activator, partial curve]
Cc1ccc(-c2cccc([C@H]3[C@@H]4C=CC[C@@H](C)[C@@H]4C(=O)N3Cc3ccccc3)c2)cc1	–	inconclusive: 44.7 µM [inhibitor, single point]
Oc1ccccc1C1=Nc2ccccc2N=C(c2cccs2)C1	–	inconclusive: 25.1 µM [inhibitor, single point]
Cc1oc2ncnc(N3CCOCC3)c2c1C(=O)NCCc1ccccc1	inactive: 3.49%	–
CCOC(=O)c1ccccc1NC(=O)c1cc2ccc3cccnc3c2[nH]1	inactive: -7.25%	–
CCCC1N=C2c3ccccc3N=C(SCC(=O)NCCc3ccc(Cl)cc3)N2C1=O (stereo not given)	inactive: -5.42%	–
Nc1c(N=Nc2cccc(Cl)c2)c(=O)[nH]n1-c1ccccc1	–	inconclusive: 39.8 µM [inhibitor, single point]
CCCC(=O)Nc1sc(C)c(-c2ccc(C(C)CC)cc2)c1C#N (stereo not given)	–	active: 7.94 µM
Cc1cc(NC(=O)C2CCCCC2)ccc1NC(=O)c1ccccc1Cl	–	inconclusive: 31.6 µM [inhibitor, single point]
CCN(CC)c1ccc(C(=O)OCC(=O)Nc2cc3oc4ccccc4c3cc2OC)cc1	–	active: 12.6 µM
COc1cc(/C=C/C(=O)OCC(=O)NC(=O)NC23CC4CC(CC(C4)C2)C3)ccc1OCC#N	–	inconclusive: 39.8 µM [inhibitor, single point]
O=C(COc1ccccc1-c1ccccc1)N/N=C/c1ccc2ccccc2c1	–	active: 20 µM
CCOC(=O)c1c(C)[nH]c(C(=O)Cn2c(=O)c3c(ncn3CC)n(Cc3ccccc3)c2=O)c1C	–	inconclusive: 39.8 µM [activator, single point]
CCN(CC)C(=O)CN(c1cc2c(cc1OC)oc1ccccc12)S(=O)(=O)c1ccccc1	–	inconclusive: 31.6 µM [activator, single point]
Cc1ccccc1N1CC(c2nnc(NC(=O)c3ccco3)s2)CC1=O (stereo not given)	inactive: -3.92%	–
CCCOc1ccc(/C(O)=C2\C(=O)C(=O)N(CCCOC)C23C(=O)N(C)c2ccccc23)cc1 (stereo not given)	–	inconclusive: 39.8 µM [activator, single point]

Source: PubChem BioAssay AID1476 (National Center for Advancing Translational Sciences (NCATS), 2009)
